Consider two compounds from a compilation of properties of binary mixtures (doi:10.52783/jheu.v45i07.3229).

Some of these densities may be calculated back from excess volumes.

The data set can be described thus: xn = mol fraction of the nth substance listed. The note with it: 298.15 K, 101.3 kPa.

The term mass density denotes mass per unit of volume. For the setting “x1 = 1”, `CO` + CCCC[n+]1ccccc1.F[B-](F)(F)F displayed a mass density of 786.5 kg/m3.

On to `CCCC[n+]1ccccc1.F[B-](F)(F)F` + CO, for which the mass density by setting is: (x2 = 0) 1220 kg/m3; (x2 = 0.1591) 1205 kg/m3; (x2 = 0.5381) 1139.9 kg/m3; (x2 = 0.6546) 1102.9 kg/m3; (x2 = 0.7624) 1052.1 kg/m3; (x2 = 0.8495) 992.1 kg/m3. This compound yielded a mass density (x2 = 0.9087) of 934.2 kg/m3, a mass density (x2 = 0.951) of 878 kg/m3 and a mass density (x2 = 0.9688) of 847 kg/m3.
